According to patent EP4667484A1 (QIZHEN BIOPHARMA CO., LTD. (HANGZHOU), dated 2025):

Target: recombinant human IL-1β protein (Sino Biological) (human, UniProt P01584 117-269)
Experiment: cell-based or functional assay

B1: K131E mutant IL-1 trap protein (Fc fusion)
chain: SERCDDWGLDTMRQIQVFEDEPARIKCPLFEHFLKFNYSTAHSAGLTLIWYWTRQDRDLEEPINFRLPENRISKEKDVLWFRPTLLNDTGNYTCMLRNTTYCSKVAFPLEVVQKDSCFNSPMKLPVHKLYIEYGIQRITCPNVDGYFPSSVKPTITWYMGCYKIQNFNNVIPEGMNLSFLIALISNNGNYTCVVTYPENGRTFHLTRTLTVKVVGSPKNAVPPVIHSPNDHVVYEKEPGEELLIPCTVYFSFLMDSRNEVWWTIDGKKPDDITIDVTINESISHSRTEDETRTQILSIKKVTSEDLKRSYVCHARSAKGEVAKAAKVKQKVPAPRYTVELEADKCKEREEKIILVSSANEIDVRPCPLNPNEHKGTITWYKDDSKTPVSTEQASRIHQHKEKLWFVPAKVEDSGHYYCVVRNSSYCLRIKISAKFVENEPNLCYNAQAIFKQELPVAGDGGLVCPYMEFFKNENNELPKLQWYKDCKPLLLDNIHFSGVKDRLIVMNVAEKHRGNYTCHASYTYLGKQYPITRVIEFITLEENKPTRPVIVSPANETMEVDLGSQIQLICNVTGQLSDIAYWKWNGSVIDEDDPVLGEDYYSVENPANKRRSTLITVLNISEIESRFYKHPFTCFAKNTHGIDAAYIQLIYPVTADDDDK[human IgG1 Fc with changes not listed]
notes: also called K131E Trap; K131E-Fc
inhibition of IL-1β-induced IL-6 production in human MRC-5 lung fibroblasts (IC50): 118 pM
